This passage reports binding signal results from PMC12136788.

The other results are listed elsewhere or left out.

The chains are these.
B1: chr22:32879901:32879902:+_ENSG00000100225_ENST00000397426|hu_mus|hu_hu_hu_mus_False|28_78 (ssRNA)
RNA: GGGAGUUCUACAGUCCGACGAUCCUCUUCCAUACUCAUGGCAUCCUGAAUUGACUCAGCUUCAAAAUUUUGACUAGGCCCUUCCAUACUGUCAUCAGUCCAGGCAUCAGACUGGGCGGCCUGUCCUUGGGAUGAAUCAGUCCCCAACAGAGGAUUGAGCAUCA
B2: chr4:138847413:138847414:+_ENSMUSG00000028745_ENSMUST00000102508|mus_hu|FALSE|FALSE (ssRNA)
RNA: GGGAGUUCUACAGUCCGACGAUCCCGAGGGCCACCUCUGCUCCCAGAGCUGUCCCCUGUCCCCACGACCCCCAACCCCAAGCAACUCCCAAACACACACGGAAUAAGAUUUCCAGUUUUUCUUCUCUCUUUCACACACCACAGCAACAGAGGAUUGAGCAUCA
B3: chr2:216981417:216981418:+_ENSG00000079246_ENST00000392132|hu_hu|hu_hu_hu_mus_True|38_58 (ssRNA)
RNA: GGGAGUUCUACAGUCCGACGAUCCUGAUACUGGUCCUUGCCAGCAAGGGCAUUAUCAGUGCCAUCUGUGCCAUAGAGGACUAAAGCAAUCUCAUCUUUGUUCUCAGAAAAUACCUGUCGUUGGACAAACAUAGUCAUCACUUUCAACAGAGGAUUGAGCAUCA
B4: 90660486_90660606_1981_3pUTR_ENSG00000112182_ENST00000537989|human|control|control (ssRNA)
RNA: GGGAGUUCUACAGUCCGACGAUCAUGCACCGAGGUGCUCACUUGGUCACAAGCGCUGGAGGAGAAGAUCACGCUCCUCCGGUCCAGCUCUCCCUCCUGUUUACAGAGAGCCUCCAACCCAGGCCCCCUGAGGGGCGACCCCAUCAACAGAGGAUUGAGCAUCA
B5: chr14:102547831:102547832:-_ENSG00000080824_ENST00000216281|hu_hu|motif|central (ssRNA)
RNA: GGGAGUUCUACAGUCCGACGAUCCAGUGCACGUUACCCCAAUCUGUGAAAAUAAACCAACAUGAAACUCAAAAAGCAUUACGGGCUCUGCUUUAGUGCCUAAGGUAUCACAGCAUCACUUAGUAGACAGAAAUCUUAUCUUCCCAACAGAGGAUUGAGCAUCA
B6: 153781052_153781172_3566_3pUTR_ENSG00000143614_ENST00000368655|human|control|control (ssRNA)
RNA: GGGAGUUCUACAGUCCGACGAUCCAUUCCCCCCAGUGCACUCUGGCAGCUUCUGGAGCCAGAGAGGCAGGUGGGUGUACACUAUGAGAAGAGCAGAAACCCGUACCUUUAAGGGGCUUCCCUUACUUCAAAAACAGCCUGGUCCAACAGAGGAUUGAGCAUCA
B7: chr6:38652254:38652255:-_ENSG00000124767_ENST00000373365|hu_hu|hu_hu_hu_mus_False|28_68 (ssRNA)
RNA: GGGAGUUCUACAGUCCGACGAUCCGAGAACUUCAUAGCAGGGAAGUCAAGCUUCUGCAGGAGGGUCAUUCCAAGAACCCUCGUAUAAAAAUCCAGGGACUUCUUAGGAUCCUUCACUCUUAGCAUCGUUUGCUGCAGUAGAAACAACAGAGGAUUGAGCAUCA
B8: chr16:94651144:94651145:+_ENSMUSG00000040785_ENSMUST00000117648|mus_hu|mus_mus_mus_hu_True|8_18 (ssRNA)
RNA: GGGAGUUCUACAGUCCGACGAUCAUUUUCUUGAAUCAAGUGGCGAAUAACAUAGUCCACUGCUUCAUUUAGAAAAUUUCUGCUAGAAAAACAGGUUGUAUAGUCUUCUGUGCUCAAAACCUUCCAAGAGAGCAGCUCUUUGAGCAACAGAGGAUUGAGCAUCA
B9: chr14:76904430:76904431:+_ENSMUSG00000022010_ENSMUST00000022587|mus_mus|mus_mus_mus_hu_True|78_78 (ssRNA)
RNA: GGGAGUUCUACAGUCCGACGAUCUGCAGCCAAAAACACCCUCGUGGAAAAAAAGAGCAAGCUCCAGCAGCCUUGUAUAAGCUAGAUAAAAUCUUCUGGCUUUCCGCAGCCCAGGGAGAAACAGAAAACGGCAGCCCUAAUUUACAACAGAGGAUUGAGCAUCA
B10: chr2:232320318:232320319:-_ENSG00000115053_ENST00000322723|hu_hu|hu_hu_hu_mus_True|68_78 (ssRNA)
RNA: GGGAGUUCUACAGUCCGACGAUCACUAUUAAAGUCUACAAAACCAAACCCUUUGGAGGACCCAGUUUCCCGGUCAGUGACUAUUCUUGCACGAACAGAGCCCUCAAAUGAUUCUUUUAAGGUCUCUUCAGUGGUAUCCUCAGACAACAGAGGAUUGAGCAUCA
B11: chr6:133138135:133138136:+_ENSG00000112306_ENST00000230050|hu_hu|FALSE|FALSE (ssRNA)
RNA: GGGAGUUCUACAGUCCGACGAUCAACCACUUUACGGGGUUUCCCCUCUCUGUCAAUUUUACAAAGGCCUACCCAUUCUCCUAGUUUCUUGUUGUCAUCAACCUUAAUUAGGUUGAUUUGGUGUUCAGCACAAAGGGCCUCCACCAACAGAGGAUUGAGCAUCA
B12: chr3:9792807:9792808:+_ENSG00000114026_ENST00000339511|hu_hu|FALSE|FALSE (ssRNA)
RNA: GGGAGUUCUACAGUCCGACGAUCAGCCACCUCUUGGAAGUGGGAGUCCACGGAACCCCAGUGGUGAUACAGUUGAGCCAGGGUAACAUCUAGCUGGAAGUACUUGCGCACGGCCUCCAGCUCGUCUGGUGUGGGCCUGCUAGCCAACAGAGGAUUGAGCAUCA
B13: 49064582_49067141_2978_CDS_ENSG00000008294_ENST00000262013|human|control|control (ssRNA)
RNA: GGGAGUUCUACAGUCCGACGAUCUGCAUCUGAGUCAUUGCUCGACUGAUACACUGGGGAGAGGUCUUCUGGGAUCUGAACUCCCAAAGGAUCUGUAAAGACAUGCUCUGUGUAGACGCCAGUUUGGGAGAUGUCCACUGUGUCCAACAGAGGAUUGAGCAUCA
B14: chr17:27185601:27185602:+_ENSG00000132591_ENST00000254928|hu_hu|motif|central (ssRNA)
RNA: GGGAGUUCUACAGUCCGACGAUCGACCACACCUUCAGUGAGGGCUGCCGUGAGCUCCAGGAGAACUGACUUCUGCUUCAAACAAUCGGCCUUGUUCAUGACCAGGACACUAGGGAUCUGGGAGUACUUGGUCAAGCACCUGAGCAACAGAGGAUUGAGCAUCA
B15: chr17:20919178:20919179:-_ENSG00000124422_ENST00000537526|hu_mus|FALSE|FALSE (ssRNA)
RNA: GGGAGUUCUACAGUCCGACGAUCGAGGACGUCCAGGGCUGCAAUGAGGAACUCAUGUGCGUCCUGCUGCUCAUAACCCGCCAGGUGCCGGGCGUGCGUCCACACCAGGUGCAGCAGCUUGUAUGGAAUGUGUGGGGAGCGGUGCAACAGAGGAUUGAGCAUCA
B16: 25472531_25475120_120_CDS_ENSG00000119772_ENST00000380746|human|control|control (ssRNA)
RNA: GGGAGUUCUACAGUCCGACGAUCACACUCGUCUUUCAGGCUACGAUCCACGCGCCCAUUCCUUCUCACAACCCGCUCCAGGAUCCCCAUAAGGCCAGGUGCAGCCCCUCUGCAGUCGCGCUCAGGUGUGAGCCGCGGCCCUGACAACAGAGGAUUGAGCAUCA
B17: chr1:46159212:46159213:+_ENSG00000159596_ENST00000372025|hu_mus|hu_hu_hu_mus_True|18_98 (ssRNA)
RNA: GGGAGUUCUACAGUCCGACGAUCUCUGAUCCCUCCCAAGAAAGAUAGGAAACCGGCUCCAUAAGCCAUCUGAGUGAAAGCUAGGACGGGGAUAUAAGACUUUGUUAUUACCAUGAGCAGUGGUGGAGCAGUAAAGGGGAUUAACAACAGAGGAUUGAGCAUCA
B18: chr4:103723762:103723763:-_ENSG00000109332_ENST00000394803|hu_mus|FALSE|FALSE (ssRNA)
RNA: GGGAGUUCUACAGUCCGACGAUCUGUAAAUGCAACCUUAGGUGGUUUGAAGGGGUAGUCUGUAGGAAAAUGAAUUGUCAAAAAGAAUACACCACCUUGAUAUGGGCUGUCAUUAGGUCCCAUAAUUGUGGCUUGCCAAUGAAACAACAGAGGAUUGAGCAUCA
B19: chr3:108163977:108163978:+_ENSMUSG00000068747_ENSMUST00000102632|mus_mus|FALSE|FALSE (ssRNA)
RNA: GGGAGUUCUACAGUCCGACGAUCGUUUCUGUGCAUGGGGAUAAGAAGAAUGCAGCCCAAACCCUUCUCCCUGGAGGCUCAAACACAGGGACUCAGCAGAGCUGCCAGGGGACAGGAAGUCACCUGACCACAGCUGAGGGCAUGCAACAGAGGAUUGAGCAUCA
B20: 49437221_49447787_131_CDS_ENSG00000166200_ENST00000299259|human|control|control (ssRNA)
RNA: GGGAGUUCUACAGUCCGACGAUCGUACUGAUUUUCCAAAUCCACAUUUGGCUCGGAGUUACUAUCUUCAGAGUAUUCCAGGUCGUAGUCCUCCUCAUCAUCGCACAUGAAAUCAUCCUCCAUGUCAGACAUCUUGGCCGGGAGCAACAGAGGAUUGAGCAUCA
B21: chr2:198266515:198266516:-_ENSG00000115524_ENST00000335508|hu_mus|FALSE|FALSE (ssRNA)
RNA: GGGAGUUCUACAGUCCGACGAUCCUUCAUUUCUUCAUCAGGAGACUGAAAUUCUCGAAUGAGGAUUAACAUCACUUCUCUAGUAUAGUAGUUGGCAUAUUCUGCAUCCAUAAGAGGAAUAAGAUACCCAAUAGCCUUCAAGAACAACAGAGGAUUGAGCAUCA
B22: chr13:97419678:97419679:-_ENSMUSG00000021670_ENSMUST00000022176|mus_mus|motif|central (ssRNA)
RNA: GGGAGUUCUACAGUCCGACGAUCAGACACUUAAUUACAACAUAUACAGAUUGAUAGUUUACCAAAAAAUCUAGAGUUCAGCGGAAUAAGUUAAAAUGUCUCUAAAAGAAACUUGGCUUAGAGAAAUGGUCGUUUGUUUUUUGUCAACAGAGGAUUGAGCAUCA

The assay addresses T1, UNK ZnF1-3 (human, UniProt Q9C0B0 31-174).
T1 sequence: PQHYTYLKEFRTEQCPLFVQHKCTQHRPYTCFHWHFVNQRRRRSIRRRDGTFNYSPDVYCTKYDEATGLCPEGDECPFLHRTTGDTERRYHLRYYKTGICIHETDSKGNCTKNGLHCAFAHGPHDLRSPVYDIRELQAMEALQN
In words: nsRBNS (natural sequence RNA bind-n-seq); RBNS binding buffer (assumed for nsRBNS): 25 mM Tris pH 7.5, 150 mM KCl, 3 mM MgCl2, 0.01% Triton X-100, 500 ug/ml BSA, 20 U/ml SUPERase-In, 4 C; UNK is unkempt and MSI1 is Musashi-1; names of the RNAs are library labels; protein concentration not given here; high values mean tight binding.
Take B1: the binding signal was found to be 1.03 enrichment R.
The value for B2 was 1.69 enrichment R; that for B3 was 0.689 enrichment R.
B4: the binding signal was found to be 0.485 enrichment R.
B5 yielded a binding signal of 2.23 enrichment R.
B6 had a binding signal of 0.588 enrichment R.
The value for B7 was 0.494 enrichment R; that for B8 was 0.819 enrichment R.
In turn, B9 gave a binding signal of 2.26 enrichment R.
As for B10, the binding signal amounted to 0.502 enrichment R.
B11: the binding signal is 0.63 enrichment R.
In turn, B12 came in with a binding signal of 1.85 enrichment R.
Molecule B13 yielded a binding signal of 0.639 enrichment R.
The molecule B14 showed a binding signal of 1.41 enrichment R.
B15 gave a binding signal of 0.926 enrichment R.
B16 showed a binding signal of 0.855 enrichment R.
B17 gave a binding signal of 1.97 enrichment R.
B18: the binding signal was found to be 1.44 enrichment R.
For B19, the binding signal amounted to 0.834 enrichment R.
Then B20, with 0.523 enrichment R; and B21, with 1.35 enrichment R.
As for B22, the binding signal stood at 1.25 enrichment R.
